Experimental data published in the supplement of paper PMC6206098.
± gives the uncertainty stated by the source. The sequences are guide strands of siRNAs; only the seed at positions 2 to 7 varies.

How the values were obtained:
M565 = test: cell viability relative to lipid-only control; higher = less toxic; conditions: concentration: 10 nM; 96 h; Mus musculus
Description: (§1)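 Arrayed screen of 4096 siRNA duplexes, each carrying one of all possible 6mer seeds at guide-strand positions 2-7 in a fixed neutral 19mer scaffold (constant flanks: U at position 1, then ACAUGUAAACCA, plus a 3' AA overhang). The passenger strand is 2'-O-methylated at positions 1-2 so only the guide strand loads into RISC. Duplexes were reverse-transfected at 10 nM with RNAiMAX in triplicate in 384-well plates; viability was read by CellTiter-Glo ATP content 96 h after transfection. Values are % viability normalised to lipid-only wells (HeyA8, H460, M565) or to siNT1 (3LL).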

HeyA8 = test: as above; conditions: concentration: 10 nM; 96 h; Homo sapiens
Description: as §1

H460 = test: as above; conditions: concentration: 10 nM; 96 h; Homo sapiens
Description: as §1

3LL = test: cell viability relative to siNT1 control; HeyA8 human ovarian and H460 human lung cancer; M565 mouse liver and 3LL mouse lung cancer; siNT1 is a non-toxic control siRNA; higher = less toxic; conditions: concentration: 10 nM; 96 h; Mus musculus
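Throughout, for cell viability relative to lipid-only control: reverse lipid transfection in 384-well plates, in triplicate, of duplexes on a non-toxic 19mer backbone with passenger strand 2′-O-methylated at positions 1 and 2, luminescence viability read-out.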
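Throughout, for cell viability relative to siNT1 control: Luminescence-based viability of cells reverse transfected in 384-well plates with lipid-complexed siRNAs built on a non-toxic 19mer backbone whose passenger strand carries 2′-O-methyl groups at positions 1 and 2, triplicates.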

Row | Sequence | cell viability (M565) [%] | cell viability (HeyA8) [%] | cell viability (H460) [%] | cell viability (3LL) [%]
1 | UUAUACCACAUGUAAACCAAA | 46.4 ± 16 | 62.9 ± 3.4 | 47.1 ± 2.7 | 6.2 ± 1.1
2 | UUCAGACACAUGUAAACCAAA | 54.7 ± 0.66 | 45.4 ± 3.4 | 33 ± 0.83 | 29.8 ± 4
3 | UAGUUAGACAUGUAAACCAAA | 54.9 ± 2.9 | 66 ± 4.8 | 57.9 ± 5.5 | 69.4 ± 7.9
4 | UAUGCCGACAUGUAAACCAAA | 79.3 ± 8.1 | 94.5 ± 4.3 | 81.5 ± 7.1 | 104 ± 7.9
5 | UCAAGGUACAUGUAAACCAAA | 13.9 ± 4.6 | 55.4 ± 4.5 | 38.8 ± 1.7 | 37.1 ± 11
6 | UCAGCCUACAUGUAAACCAAA | 61.7 ± 5.1 | 62.4 ± 2.8 | 43.1 ± 3.2 | 72.7 ± 13
7 | UGAGGAGACAUGUAAACCAAA | 15.4 ± 2.6 | 38.9 ± 4.3 | 55 ± 4.8 | 76.1 ± 9.9
8 | UGUCUCAACAUGUAAACCAAA | 36 ± 7.3 | 44.1 ± 6.5 | 51.3 ± 5.3 | 49.7 ± 6.4
9 | UUGGCCAACAUGUAAACCAAA | 83.3 ± 14 | 100 ± 11 | 74.1 ± 5.1 | 70.4 ± 1.5
10 | UCAGUAAACAUGUAAACCAAA | 74.2 ± 6.2 | 92.8 ± 1.6 | 55.2 ± 4.5 | 90.8 ± 17
11 | UUCAAGUACAUGUAAACCAAA | 40.9 ± 2.9 | 66.2 ± 3.7 | 59.8 ± 3.7 | 45.8 ± 4.9
12 | UAUCGAGACAUGUAAACCAAA | 110 ± 12 | 96.8 ± 2.6 | 105 ± 4.7 | 125 ± 13
13 | UUCGCAUACAUGUAAACCAAA | 87.3 ± 8.3 | 82.5 ± 4.6 | 90.8 ± 25 | 92.2 ± 24
14 | UUUCUAAACAUGUAAACCAAA | 93.2 ± 7.7 | 98.4 ± 4.6 | 46.1 ± 6 | 102 ± 8.2
15 | UUACCCUACAUGUAAACCAAA | 21.9 ± 5.5 | 47.4 ± 5.4 | 36.4 ± 2.6 | 14 ± 2.5
16 | UAAUUGUACAUGUAAACCAAA | 31 ± 4.5 | 44.7 ± 4.3 | 81.6 ± 3 | 46.8 ± 5
17 | UAUCUUGACAUGUAAACCAAA | 124 ± 19 | 94.6 ± 7.8 | 64.7 ± 7.5 | 117 ± 11
18 | UCUGUAAACAUGUAAACCAAA | 67 ± 6.9 | 91.2 ± 4.7 | 62.39 ± 0.59 | 103 ± 14
19 | UGGCUUCACAUGUAAACCAAA | 32 ± 11 | 8.58 ± 1.6 | 30 ± 3.3 | 54.3 ± 3.7
20 | UGGCCUAACAUGUAAACCAAA | 40.6 ± 4.9 | 34.7 ± 3.6 | 83.8 ± 6.1 | 85.2 ± 5
21 | UACGUCAACAUGUAAACCAAA | 43 ± 7.3 | 79.6 ± 11 | 97.2 ± 2.9 | 81.1 ± 11
22 | UCGUUGUACAUGUAAACCAAA | 13.6 ± 2.7 | 24.1 ± 0.46 | 71.3 ± 17 | 79.6 ± 16
23 | UCGGGCAACAUGUAAACCAAA | 32.6 ± 9.4 | 33.1 ± 7.1 | 58.3 ± 11 | 65.5 ± 15
24 | UCGGCUUACAUGUAAACCAAA | 42.9 ± 6.2 | 54.3 ± 1.1 | 90.3 ± 14 | 82.1 ± 6.7

Row | Sequence | cell viability (M565) [%] | cell viability (HeyA8) [%] | cell viability (H460) [%] | cell viability (3LL) [%]
25 | UAUUGGGACAUGUAAACCAAA | 47.2 ± 18 | 52.3 ± 8.2 | 19.4 ± 0.67 | 107 ± 9.5
26 | UUUGUUGACAUGUAAACCAAA | 71.5 ± 2 | 84 ± 7.5 | 89.1 ± 8.7 | 101 ± 10
27 | UGGAGAUACAUGUAAACCAAA | 22.2 ± 3.7 | 27.2 ± 4.2 | 42.9 ± 5.6 | 23.6 ± 5.2
28 | UGAAUGAACAUGUAAACCAAA | 40.6 ± 5.9 | 59.5 ± 9.5 | 59.9 ± 6.3 | 84.6 ± 16
29 | UAUUGAUACAUGUAAACCAAA | 85.3 ± 16 | 86.9 ± 8.8 | 64.3 ± 4.4 | 103 ± 20
30 | UAUUAUCACAUGUAAACCAAA | 102 ± 2 | 78.9 ± 9.7 | 108 ± 7.4 | 90 ± 15
31 | UUACUUGACAUGUAAACCAAA | 82.9 ± 24 | 92.8 ± 1.3 | 67.3 ± 7.5 | 84.8 ± 2.9
32 | UAGGAAGACAUGUAAACCAAA | 19.9 ± 1.4 | 68.4 ± 5.7 | 62.7 ± 6.3 | 78.5 ± 12
33 | UACAAUAACAUGUAAACCAAA | 65.8 ± 4.5 | 89.6 ± 6.4 | 90.7 ± 7.6 | 97.1 ± 12
34 | UAAGCAGACAUGUAAACCAAA | 68 ± 7.5 | 98.3 ± 10 | 75.4 ± 14 | 74.4 ± 7.5
35 | UAGUAGAACAUGUAAACCAAA | 82.5 ± 9 | 76.1 ± 5.1 | 68.5 ± 14 | 81.3 ± 9.9
36 | UUAUUUGACAUGUAAACCAAA | 110 ± 11 | 94.7 ± 2.9 | 76.6 ± 5.5 | 98.6 ± 7.5
37 | UGGACGAACAUGUAAACCAAA | 24.3 ± 7.6 | 53.2 ± 2.2 | 57.6 ± 10 | 87.9 ± 3.6
38 | UUCAAAAACAUGUAAACCAAA | 93.9 ± 12 | 100 ± 14 | 81.3 ± 8.8 | 110 ± 19
39 | UUCCAGAACAUGUAAACCAAA | 95.5 ± 14 | 92.7 ± 12 | 61.5 ± 7 | 105 ± 23
40 | UGCUUGAACAUGUAAACCAAA | 73 ± 3 | 51.8 ± 3.3 | 61.1 ± 8.9 | 82.4 ± 12
41 | UAUAGCGACAUGUAAACCAAA | 96.4 ± 8.8 | 97 ± 11 | 66.2 ± 2.4 | 113 ± 18
42 | UGCUGACACAUGUAAACCAAA | 19.5 ± 2.7 | 24.8 ± 2.4 | 39.7 ± 2.6 | 9.09 ± 5.3
43 | UCACGGUACAUGUAAACCAAA | 48.2 ± 9.3 | 59.3 ± 3.1 | 14.8 ± 1.3 | 55.7 ± 14
44 | UGGUGCUACAUGUAAACCAAA | 18 ± 7.3 | 3 ± 0.57 | 5.82 ± 0.78 | 5.68 ± 2.8
45 | UUGCUGUACAUGUAAACCAAA | 19.7 ± 1.4 | 85.8 ± 5.3 | 79.8 ± 2.6 | 29.3 ± 8
46 | UAUGCGCACAUGUAAACCAAA | 119 ± 2.1 | 85.6 ± 6 | 63.7 ± 3.8 | 32.2 ± 2.7
47 | UGUCCGAACAUGUAAACCAAA | 39.2 ± 7.4 | 89.4 ± 4 | 84.3 ± 19 | 64.6 ± 14
48 | UGCUUUCACAUGUAAACCAAA | 73.1 ± 11 | 13.1 ± 1.5 | 45.3 ± 13 | 24.7 ± 4.4
